Measured values reported in the supplement of paper PMC8728848.
The other results are listed elsewhere or left out.

Key:
Assay in all cases: glycan array binding signal (z-score within array); higher = stronger binding
Details in all cases: glycan notation: IUPAC condensed, linker removed
[1] = molecular target: Fuc(a1-2)[Gal(a1-3)]Gal(b1-4)[Fuc(a1-3)]GlcNAc(b1-3)GalNAc
Procedure, shortened: (§1)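 Columns mapping to the same glycan were averaged after glycan names were converted to IUPAC-condensed notation. The data come from 3228 arrays in the Consortium for Functional Glycomics database, limited to those with an available protein sequence. Binding is reported as a within-array Z-score averaged across arrays of one protein sequence and across linkers.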

[2] = molecular target: Fuc(a1-2)[Gal(a1-4)]Gal(b1-4)GalNAc
Procedure, shortened: as §1

[3] = molecular target: Fuc(a1-2)[Gal(a1-4)]Gal(b1-4)GlcNAc
Procedure, shortened: as §1

[4] = molecular target: Fuc(a1-2)[GalNAc(a1-3)]Gal
Procedure, shortened: as §1

[5] = molecular target: Fuc(a1-2)[GalNAc(a1-3)]Gal(b1-3)GalNAc(a1-3)[Fuc(a1-2)]Gal(b1-4)GlcNAc
Procedure, shortened: as §1

[6] = molecular target: Fuc(a1-2)[GalNAc(a1-3)]Gal(b1-3)GalNAc(b1-3)Gal(a1-4)Gal(b1-4)Glc
Procedure, shortened: as §1

[7] = molecular target: Fuc(a1-2)[GalNAc(a1-3)]Gal(b1-3)GlcNAc
Procedure, shortened: as §1

[8] = molecular target: Fuc(a1-2)[GalNAc(a1-3)]Gal(b1-3)GlcNAc(b1-2)Man(a1-3)[Fuc(a1-2)[GalNAc(a1-3)]Gal(b1-3)GlcNAc(b1-2)Man(a1-6)]Man(b1-4)GlcNAc(b1-4)GlcNAc
Procedure, shortened: as §1

[9] = molecular target: Fuc(a1-2)[GalNAc(a1-3)]Gal(b1-3)GlcNAc(b1-2)Man(a1-3)[Fuc(a1-2)[GalNAc(a1-3)]Gal(b1-3)GlcNAc(b1-2)Man(a1-6)]Man(b1-4)GlcNAc(b1-4)[Fuc(a1-6)]GlcNAc
Procedure, shortened: as §1

[10] = molecular target: Fuc(a1-2)[GalNAc(a1-3)]Gal(b1-3)GlcNAc(b1-3)GalNAc
Procedure, shortened: as §1

[11] = molecular target: Fuc(a1-2)[GalNAc(a1-3)]Gal(b1-3)GlcNAc(b1-6)GalNAc
Procedure, shortened: as §1

[12] = molecular target: Fuc(a1-2)[GalNAc(a1-3)]Gal(b1-4)Glc
Procedure, shortened: as §1

[13] = molecular target: Fuc(a1-2)[GalNAc(a1-3)]Gal(b1-4)GlcNAc
Procedure, shortened: as §1

[14] = molecular target: Fuc(a1-2)[GalNAc(a1-3)]Gal(b1-4)GlcNAc(b1-2)Man
Procedure, shortened: as §1

[15] = molecular target: Fuc(a1-2)[GalNAc(a1-3)]Gal(b1-4)GlcNAc(b1-2)Man(a1-3)[Fuc(a1-2)[GalNAc(a1-3)]Gal(b1-4)GlcNAc(b1-2)Man(a1-6)]Man(b1-4)GlcNAc(b1-4)GlcNAc
Procedure, shortened: as §1

[16] = molecular target: Fuc(a1-2)[GalNAc(a1-3)]Gal(b1-4)GlcNAc(b1-2)Man(a1-3)[Fuc(a1-2)[GalNAc(a1-3)]Gal(b1-4)GlcNAc(b1-2)Man(a1-6)]Man(b1-4)GlcNAc(b1-4)[Fuc(a1-6)]GlcNAc
Procedure, shortened: as §1

[17] = molecular target: Fuc(a1-2)[GalNAc(a1-3)]Gal(b1-4)GlcNAc(b1-3)Gal(b1-4)GlcNAc
Procedure, shortened: as §1

[18] = molecular target: Fuc(a1-2)[GalNAc(a1-3)]Gal(b1-4)GlcNAc(b1-3)Gal(b1-4)GlcNAc(b1-3)Gal(b1-4)GlcNAc
Procedure, shortened: as §1

[19] = molecular target: Fuc(a1-2)[GalNAc(a1-3)]Gal(b1-4)GlcNAc(b1-3)GalNAc
Procedure, shortened: as §1

[20] = molecular target: Fuc(a1-2)[GalNAc(a1-3)]Gal(b1-4)GlcNAc(b1-3)[Fuc(a1-2)[GalNAc(a1-3)]Gal(b1-4)GlcNAc(b1-6)]GalNAc
Procedure, shortened: as §1

[21] = molecular target: Fuc(a1-2)[GalNAc(a1-3)]Gal(b1-4)GlcNAc(b1-6)GalNAc
Procedure, shortened: as §1

[22] = molecular target: Fuc(a1-2)[GalNAc(a1-3)]Gal(b1-4)[Fuc(a1-3)]GlcNAc
Procedure, shortened: as §1

[23] = molecular target: Fuc(a1-2)[GalNAc(a1-3)]Gal(b1-4)[Fuc(a1-3)]GlcNAc(b1-3)GalNAc
Procedure, shortened: as §1

[24] = molecular target: Fuc(a1-2)[GalNAc(a1-4)]Gal(b1-4)GlcNAc
Procedure, shortened: as §1

[25] = molecular target: Fuc(a1-2)[GalNAc(b1-3)]Gal
Procedure, shortened: as §1

[26] = molecular target: Fuc(a1-3)GlcNAc
Procedure, shortened: as §1

[27] = molecular target: Fuc(a1-3)[Gal(b1-4)]Glc6S
Procedure, shortened: as §1

[28] = molecular target: Fuc(a1-3)[Gal(b1-4)]GlcNAc
Procedure, shortened: as §1

[29] = molecular target: Fuc(a1-3)[Gal(b1-4)]GlcNAc(b1-2)Man
Procedure, shortened: as §1

[30] = molecular target: Fuc(a1-3)[Gal(b1-4)]GlcNAc(b1-2)Man(a1-3)[Fuc(a1-3)[Gal(b1-4)]GlcNAc(b1-2)Man(a1-6)]Man(b1-4)GlcNAc(b1-4)GlcNAc
Procedure, shortened: as §1

[31] = molecular target: Fuc(a1-3)[Gal(b1-4)]GlcNAc(b1-2)Man(a1-3)[Fuc(a1-3)[Gal(b1-4)]GlcNAc(b1-2)Man(a1-6)]Man(b1-4)GlcNAc(b1-4)[Fuc(a1-6)]GlcNAc
Procedure, shortened: as §1

[32] = molecular target: Fuc(a1-3)[Gal(b1-4)]GlcNAc(b1-3)Gal(b1-3)[Fuc(a1-4)]GlcNAc
Procedure, shortened: as §1

[33] = molecular target: Fuc(a1-3)[Gal(b1-4)]GlcNAc(b1-3)Gal(b1-4)[Fuc(a1-3)]GlcNAc
Procedure, shortened: as §1

[34] = molecular target: Fuc(a1-3)[Gal(b1-4)]GlcNAc(b1-3)Gal(b1-4)[Fuc(a1-3)]GlcNAc(b1-3)Gal(b1-4)[Fuc(a1-3)]GlcNAc
Procedure, shortened: as §1

[35] = molecular target: Fuc(a1-3)[Gal(b1-4)]GlcNAc(b1-3)GalNAc
Procedure, shortened: as §1

[36] = molecular target: Fuc(a1-3)[Gal(b1-4)]GlcNAc(b1-4)Gal(b1-4)[Fuc(a1-3)]GlcNAc
Procedure, shortened: as §1

[37] = molecular target: Fuc(a1-3)[Gal(b1-4)]GlcNAc(b1-4)Gal(b1-4)[Fuc(a1-3)]GlcNAc(b1-4)Gal(b1-4)[Fuc(a1-3)]GlcNAc
Procedure, shortened: as §1

[38] = molecular target: Fuc(a1-3)[Gal(b1-4)]GlcNAc(b1-6)GalNAc
Procedure, shortened: as §1

[39] = molecular target: Fuc(a1-3)[Gal(b1-4)]GlcNAc(b1-6)[Gal(b1-3)GlcNAc(b1-3)]Gal(b1-4)Glc
Procedure, shortened: as §1

[40] = molecular target: Fuc(a1-3)[Gal(b1-4)]GlcNAc(b1-6)[Neu5Ac(a2-3)Gal(b1-3)]GalNAc
Procedure, shortened: as §1

[41] = molecular target: Fuc(a1-3)[Gal(b1-4)]GlcNAc6S
Procedure, shortened: as §1

[42] = molecular target: Fuc(a1-3)[Gal3S(b1-4)]Glc
Procedure, shortened: as §1

[43] = molecular target: Fuc(a1-3)[Gal3S(b1-4)]Glc6S
Procedure, shortened: as §1

[44] = molecular target: Fuc(a1-3)[Gal3S(b1-4)]GlcNAc
Procedure, shortened: as §1

[45] = molecular target: Fuc(a1-3)[Gal3S(b1-4)]GlcNAc6S
Procedure, shortened: as §1

B1: Nictaba (Nicotiana tabacum), Q94EW1 (protein)
chain: MQGQWIAARDLSITWVDNPQYWTWKTVDPNIEVAELRRVAWLDIYGKIETKNLIRKTSYAVYLVFKLTDNPRELERATASLRFVNEVAEGAGIEGTTVFISKKKKLPGELGRFPHLRSDGWLEIKLGEFFNNLGEDGEVEMRLMEINDKTWKSGIIVKGFDIRPN
glycan array binding signal (z-score) [1]: -0.275 | glycan array binding signal (z-score) [2]: -0.381 | glycan array binding signal (z-score) [3]: -0.271 | glycan array binding signal (z-score) [4]: -0.289 | glycan array binding signal (z-score) [5]: -0.297 | glycan array binding signal (z-score) [6]: -0.38 | glycan array binding signal (z-score) [7]: -0.331 | glycan array binding signal (z-score) [8]: -0.066 | glycan array binding signal (z-score) [9]: -0.158 | glycan array binding signal (z-score) [10]: -0.211 | glycan array binding signal (z-score) [11]: -0.388 | glycan array binding signal (z-score) [12]: -0.266 | glycan array binding signal (z-score) [13]: -0.305 | glycan array binding signal (z-score) [14]: -0.39 | glycan array binding signal (z-score) [15]: 1.25 | glycan array binding signal (z-score) [16]: -0.072 | glycan array binding signal (z-score) [17]: -0.278 | glycan array binding signal (z-score) [18]: -0.313 | glycan array binding signal (z-score) [19]: -0.281 | glycan array binding signal (z-score) [20]: -0.386 | glycan array binding signal (z-score) [21]: -0.389 | glycan array binding signal (z-score) [22]: -0.307 | glycan array binding signal (z-score) [23]: -0.272 | glycan array binding signal (z-score) [24]: -0.259 | glycan array binding signal (z-score) [25]: -0.291 | glycan array binding signal (z-score) [26]: -0.277 | glycan array binding signal (z-score) [27]: -0.292 | glycan array binding signal (z-score) [28]: -0.306 | glycan array binding signal (z-score) [29]: -0.388 | glycan array binding signal (z-score) [30]: 5.57 | glycan array binding signal (z-score) [31]: 0.122 | glycan array binding signal (z-score) [32]: -0.266 | glycan array binding signal (z-score) [33]: -0.383 | glycan array binding signal (z-score) [34]: -0.388 | glycan array binding signal (z-score) [35]: -0.274 | glycan array binding signal (z-score) [36]: -0.209 | glycan array binding signal (z-score) [37]: -0.282 | glycan array binding signal (z-score) [38]: -0.18 | glycan array binding signal (z-score) [39]: -0.286 | glycan array binding signal (z-score) [40]: -0.295 | glycan array binding signal (z-score) [41]: -0.274 | glycan array binding signal (z-score) [42]: -0.241 | glycan array binding signal (z-score) [43]: -0.134 | glycan array binding signal (z-score) [44]: -0.277 | glycan array binding signal (z-score) [45]: -0.214
